Laboratory results published in PubChem BioAssay AID1452 (National Center for Advancing Translational Sciences (NCATS), 2008).
About 190 (0.13%) of roughly 150,000 compounds were called active. The inconclusive results got no clear call from the source; some entries with a clear call stand among them for comparison. The call rests on the fitted dose curve; in most records, active means well fitted inhibition curve with a large enough effect; inconclusive means small, poorly fitted or top-dose-only effect; inactive means flat fitted curve, though single readings scatter. Potencies beside an inconclusive call are fits to weak or partial responses and may not hold up.

These compounds were tested against Polyunsaturated fatty acid lipoxygenase ALOX12 (Homo sapiens) (UniProt P18054) (assay: qHTS Assay for Inhibitors of 12-hLO (12-human lipoxygenase)). Conditions: purified 12-hLO, xylenol orange hydroperoxide absorbance; series mostly up to 57.1 µM.
Chain of UniProt P18054 (P18054 whole entry, looked up): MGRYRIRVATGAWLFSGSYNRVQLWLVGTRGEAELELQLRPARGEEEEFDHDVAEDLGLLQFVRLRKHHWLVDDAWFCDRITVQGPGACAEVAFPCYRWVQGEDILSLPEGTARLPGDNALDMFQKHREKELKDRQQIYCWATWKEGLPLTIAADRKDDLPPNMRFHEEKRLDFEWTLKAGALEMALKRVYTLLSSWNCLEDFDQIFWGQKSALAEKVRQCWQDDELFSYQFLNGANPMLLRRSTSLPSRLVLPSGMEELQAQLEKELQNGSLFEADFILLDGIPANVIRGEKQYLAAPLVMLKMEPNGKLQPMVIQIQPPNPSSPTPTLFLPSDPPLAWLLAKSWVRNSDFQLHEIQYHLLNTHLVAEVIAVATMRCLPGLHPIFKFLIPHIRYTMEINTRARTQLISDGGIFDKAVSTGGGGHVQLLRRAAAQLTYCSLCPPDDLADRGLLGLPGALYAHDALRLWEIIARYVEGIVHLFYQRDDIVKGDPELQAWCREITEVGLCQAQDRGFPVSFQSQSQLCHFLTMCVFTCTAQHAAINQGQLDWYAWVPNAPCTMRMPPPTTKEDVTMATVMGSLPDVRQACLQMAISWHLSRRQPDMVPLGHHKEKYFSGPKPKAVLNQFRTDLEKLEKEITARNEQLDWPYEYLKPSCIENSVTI
Description: Assay Provider: Holman, T.R., University of California, Santa Cruz Screening Center PI: Austin, C.P. Screening Center: NIH Chemical Genomics Center [NCGC] Human lipoxygenase 12hLO is a member of the closely related lipoxygenase family of enzymes which catalyze the site-specific oxidation of arachidonic acid to various hormone precursor molecules and as such is a candidate for drug development in a variety of disease areas, such as cancer and inflammation. Inhibition of 12hLO activity was screened by utilizing arachidonic acid as a substrate. The extent of hydroperoxide product formation was measured by a secondary chromogenic reaction in which xylenol orange (XO, Sigma-Aldrich, cat. number 39,818-7) reacts with the ferric ions produced from the reaction between the hydroperoxide and ferrous ions. The Fe(III)-XO complex is characterized with red-shifted absorbance at 560 nm. A purified preparation of human 12hLO was supplied by Professor Ted Holman, University of California, Santa Cruz.
Assay Protocol: Buffer: 25 mM Hepes pH 7.0, 0.01% Triton X-100. Reagents/Controls: Buffer in columns 3 and 4 as negative control (no enzyme). Substrate solution: 40 uM arachidonic acid (Sigma-Aldrich, St. Louis, MO) final concentration dispensed throughout the plate. Enzyme: 150 nM 12hLO final concentration in columns 1, 2, 5-48. Column 1 is neutral (100% activity). Column 2 contained pin-transferred titration of NDGA (nordihidroguaiaretic acid, Sigma-Aldrich, N 5023, top concentration 20 mM in DMSO, then 1:3 dilution in duplicate). (Dilution factor: 23 nL into 4 uL.) Chromogenic detection reagent (divalent iron/xylenol orange, Fe-XO): 200 uM xylenol orange plus 300 uM ferrous ammonium sulfate prepared freshly in 50 mM sulfuric acid. Assay Steps: Three uL of enzyme were dispensed to 1536-well Greiner black clear bottom plates. Compounds and controls (23 nL) were transferred via Kalypsys PinTool. The plates were incubated for 15 min at room temperature, and then 1 uL of substrate solution was added to start the reaction. After room temperature incubation for 30 minutes, 4 uL of Fe-XO solution was added to each well and the plates were incubated for 30 min. The absorbance at 405 and 573 nm were measured using ViewLux (Perkin-Elmer) High-throughput CCD imager and absorbance protocol settings. The 573-to-405 absorbance ratio was used to compute reaction progress.
Further: nearly all actives have a fitted effect of over 55% in size.
On the % scale 0 is the no-effect control and ±100 the full control effect; potency means the concentration at half of the fitted maximal effect; tags describe the fitted curve by direction and shape.

Row | SMILES | Potency | activity change, negative = inhibition
1 | CCOC(=O)C1CCN(c2ncnc3c2oc2ccc(Cl)cc23)CC1 | inconclusive: 5.62 µM [inhibitor, partial curve] | –
2 | COc1cccc(C2CC(c3ccccc3Cl)n3nc(N)nc3N2)c1 (stereo not drawn) | inactive | –
3 | N#C/C(=C/c1ccc(N2CCOCC2)o1)c1ccc(Cl)cc1 | inconclusive: 14.1 µM [inhibitor, partial curve] | –
4 | Cc1ccc(-c2ccc(/C=N/NC(=S)Nc3ccccc3)o2)cc1[N+](=O)[O-] | inconclusive: 25.1 µM [inhibitor, partial curve] | –
5 | O=[N+]([O-])c1ccc(O)c(-c2nn[nH]n2)c1 | inconclusive: 1.41 µM [inhibitor, partial curve] | –
6 | Oc1cc(CN2COc3ccccc32)c(O)cc1CNC1CCCCC1 | – | inactive: 9.72% [at 11.4 µM]
7 | Cc1ccc(SC(CC(=O)c2ccc(C)cc2)C(=O)O)cc1 (stereo not drawn) | inactive | –
8 | C=CCSc1nc2sc3c(c2c(=O)n1CC)CCc1ccccc1-3 | inconclusive: 20 µM [inhibitor, partial curve] | –
9 | Cc1cc(Cl)ccc1N=Cc1c(O)n(C)c(=O)n(C)c1=O | inactive | –
10 | Fc1ccc(N/N=C/C=C/c2ccccc2)c(F)c1 | inconclusive: 3.98 µM [inhibitor, full curve] | –
11 | C=C(C)CNC(=S)N/N=C/C1=CCC2CC1C2(C)C (stereo not drawn) | inconclusive: 25.1 µM [inhibitor, single point] | –
12 | COc1ccc(/C=C2/CCc3ccccc3C2=O)cc1OC | inactive | –
13 | Cc1[nH]c(=S)sc1Cc1ccc(Cl)c(Cl)c1 | inconclusive: 22.4 µM [inhibitor, single point] | –
14 | CC(=O)Oc1cc2oc(=O)cc(C)c2cc1OC(C)=O | inconclusive: 3.16 µM [inhibitor, partial curve] | –
15 | O=C1C2=C(NC(=S)NC2c2ccc(Cl)cc2)NC(c2ccc(Cl)cc2)N1c1ccc(Cl)cc1 (stereo not drawn) | inconclusive: 14.1 µM [inhibitor, partial curve] | –
16 | COCCSc1nnc(-c2cccc(C#N)c2)n1C | inconclusive: 35.5 µM [inhibitor, single point] | –
17 | Cc1cc(C)c2nc(N3CCC(C(=O)N4CCCC4)CC3)sc2c1 | inactive | –
18 | CC(C)(C)C(=O)NC(=S)NCCc1ccccc1 | active: 12.6 µM | –
19 | Cc1cc(CN(C)C)c(O)c(C2(C)CCCCC2)c1 | inconclusive: 39.8 µM [inhibitor, single point] | –
20 | COC(=O)c1[nH]c2ccc(Cl)cc2c1NC(=O)Oc1ccccc1 | inconclusive: 31.6 µM [inhibitor, single point] | –
21 | Cc1cccn2c(=O)c3cc(C(N)=S)c(=N)n(CCCOC(C)C)c3nc12 | inconclusive: 20 µM [inhibitor, single point] | –
22 | CC(C)NC(=S)NC(=O)c1ccc(-c2ccccc2)cc1 | inconclusive: 4.47 µM [inhibitor, full curve] | –
23 | Cc1cccc(CNc2ncnc3ccc(-c4ccc(C(=O)N(C)C)cc4)cc23)c1 | inconclusive: 39.8 µM [inhibitor, single point] | –
24 | CN(C)C1C(=O)C(C(N)=O)=C(O)[C@@]2(O)C(=O)C3=C(O)c4c(O)ccc(Cl)c4C(O)[C@H]3C[C@@H]12 (stereo partly drawn) | inactive | –
25 | CCOC(=O)c1ccc(N2C(=O)C3C(C2=O)C(C(=O)c2ccc(Cl)cc2)N2CCCC32)cc1 (stereo not drawn) | inconclusive: 25.1 µM [inhibitor, single point] | –

Row | SMILES | Potency | activity change, negative = inhibition
26 | COc1cccc(N2C(=O)CC(Nc3ccc(N4CCOCC4)cc3)C2=O)c1 (stereo not drawn) | inconclusive: 12.6 µM [inhibitor, partial curve] | –
27 | CC1=C(C(=O)OCc2ccccc2)C(/C=C/c2ccccc2)NC(=S)N1 (stereo not drawn) | inconclusive: 25.1 µM [inhibitor, partial curve] | –
28 | COC(=O)CSc1nc(N)c2c3c(sc2n1)C(c1ccccc1)SC(c1ccccc1)C3 (stereo not drawn) | inactive | –
29 | COC(=O)[C@@]1(Cc2ccc(OC)cc2)[C@H]2c3cc(C(=O)N4CCCC4)n(Cc4cc(F)cc5c4OCOC5)c3C[C@H]2CN1C(=O)c1ccccc1 | inactive | –
30 | Cc1cc(O)ccc1C1(c2ccc(O)cc2C)OC(=O)c2ccccc21 | inconclusive: 28.2 µM [inhibitor, single point] | –
31 | O=C1C(Cl)=C(N2CCCCCC2)C(=O)N1c1ccccc1 | inactive | –
32 | O=C(CSc1nnc(-c2ccc(Cl)cc2)n1Cc1ccco1)Nc1ccc2c(c1)OCCO2 | inconclusive: 17.8 µM [inhibitor, partial curve] | –
33 | O=C1CC(=O)N(Cc2ccco2)C(=S)N1 | inconclusive: 14.1 µM [inhibitor, partial curve] | –
34 | CCCn1c(SCC(=O)Nc2ccc(OC)cc2)nnc1-c1ccncc1 | inactive | –
35 | Nc1c(C(=O)c2ccccc2)sc2snc(SCC(=O)c3ccccc3)c12 | inconclusive: 17.8 µM [inhibitor, single point] | –
36 | CCCCNC(=O)CSc1cc(=O)n(C)c2ccccc12 | inactive | –
37 | COC(=O)c1ccccc1NC(=O)CN1CCC(NC(=O)c2ccccc2C)CC1 | inactive | –
38 | O=c1c2ccccc2sc2nc(C3CCCCC3)n(Cc3ccco3)c(=O)c12 | inconclusive: 12.6 µM [inhibitor, partial curve] | –
39 | COc1ccc(OC)c(S(=O)(=O)Nc2ccc(Oc3ccccc3)cc2)c1 | inconclusive: 14.1 µM [inhibitor, partial curve] | –
40 | Cc1ccc(C2C3=C(CCCC3=O)Nc3[nH]c(=S)[nH]c(=O)c32)cc1 (stereo not drawn) | inconclusive: 25.1 µM [inhibitor, partial curve] | –
41 | CCc1ccc(NS(=O)(=O)c2ccc3[nH]cc(C(=O)N4CCCCC4)c(=O)c3c2)cc1 | inconclusive: 12.6 µM [inhibitor, single point] | –
42 | CC(=C/c1ccco1)/C=N/NC(=O)Cc1cccn1C | inactive | –
43 | CCCNC(=S)Nc1ccc(Oc2ccccc2)cc1 | inconclusive: 39.8 µM [inhibitor, single point] | –
44 | CCOC(=O)c1nn(-c2ccccc2)c(=O)c2c(N)scc12 | inconclusive: 31.6 µM [inhibitor, single point] | –
45 | Cc1cc(C)c(S(=O)(=O)/N=C2\C=CC(=O)C(Cl)=C2)c(C)c1 | inconclusive: 8.91 µM [inhibitor, partial curve] | –
46 | O=C(Nc1ccccc1)c1ccc(NCCN2CCOCC2)c(S(=O)(=O)N2CCOCC2)c1 | inactive | –
47 | O=C(NNC(=S)Nc1cccc2ccccc12)c1cccc(Br)c1 | inconclusive: 22.4 µM [inhibitor, partial curve] | –
48 | COc1ccc(NC(=O)CCN2CCN(S(=O)(=O)c3cc(Cl)ccc3Cl)CC2)cc1 | inactive | –
49 | NS(=O)(=O)c1ccc2c(c1)C1C=CCC1C(C1CC=CCC1)N2 (stereo not drawn) | inconclusive: 28.2 µM [inhibitor, single point] | –
50 | COc1ccc(-c2csc3ncnc(NCCN4CCOCC4)c23)cc1 | inactive | –

Row | SMILES | Potency | activity change, negative = inhibition
51 | O=C(CSc1nc(O)c(C2CCCCC2)c(=O)[nH]1)Nc1ccc(Cl)cc1 | inconclusive: 25.1 µM [inhibitor, partial curve] | –
52 | CCOc1ccccc1NC(=S)NC(=O)CCCOc1ccc(Cl)cc1Cl | inconclusive: 17.8 µM [inhibitor, partial curve] | –
53 | Cc1cc(Cl)ccc1NC(=S)NCc1ccccc1Cl | inconclusive: 35.5 µM [inhibitor, single point] | –
54 | Nc1ccc(-c2ccc(Nc3cc(S(=O)(=O)O)c(N)c4c3C(=O)c3ccccc3C4=O)cc2)c(S(=O)(=O)O)c1 | – | inactive: -14.9% [at 11.4 µM]
55 | COC(=O)c1ccccc1NC(=O)CSc1n[nH]c(CC(C)C)n1 | inactive | –
56 | Cc1cccc(OCCn2c(=S)[nH]c3ccccc32)c1 | active: 28.2 µM | –
57 | O=C(N1CCOCC1)n1nnc2ccccc21 | inactive | –
58 | Cc1cc(C)nc(SCc2ccc(C(=O)N/N=C/C3CCCCC3)cc2)n1 | inactive | –
59 | Nc1nc(Sc2ccc(C(F)(F)F)cc2[N+](=O)[O-])n[nH]1 | inactive | –
60 | CCOc1cccc(C2C(C(=O)c3ccc(C)o3)=C(O)C(=O)N2c2nccs2)c1 (stereo not drawn) | inconclusive: 39.8 µM [inhibitor, single point] | –
61 | Cc1c(NC(=O)/C(C#N)=C/c2ccc(-c3ccccc3Cl)o2)c(=O)n(-c2ccccc2)n1C | inconclusive: 39.8 µM [inhibitor, single point] | –
62 | Cc1ccccc1N=Cc1cccc(O)c1O | inactive | –
63 | COc1ccc(-c2c3c([nH]c(=S)c2C#N)CCC3)cc1 | inactive | –
64 | S=C(Nc1ccccc1)Nc1nc2ccccc2n1CCOc1ccccc1 | active: 20 µM | –
65 | CC1(C)Cc2c(C#N)c(NC3CCCCC3)nc(-c3ccco3)c2CO1 | inconclusive: 28.2 µM [inhibitor, single point] | –
66 | C/C(=N\NC(=S)Nc1ccc(F)cc1)c1ccc2c(c1)OCCO2 | inconclusive: 39.8 µM [inhibitor, single point] | –
67 | CCCCC(=O)NC(=S)Nc1c(C)cc(Br)cc1C | inactive | –
68 | C=CCn1c(CNC(=O)c2ccco2)nnc1SCC(=O)N1c2ccccc2Sc2ccccc21 | inactive | –
69 | COc1ccc(NC(=S)Nc2ccc(OCc3ccccc3)cc2)cc1OC | inconclusive: 17.8 µM [inhibitor, single point] | –
70 | Cc1cc(C)c2nc(N3CCCN(C(=O)c4ccco4)CC3)c(C#N)cc2c1 | inconclusive: 20 µM [inhibitor, partial curve] | –
71 | Nc1c(S(=O)(=O)c2cccc(Cl)c2)c2nc3ccccc3nc2n1/N=C/c1ccc(O)c(O)c1 | inconclusive: 5.62 µM [inhibitor, partial curve] | –
72 | COC(=O)C1CCN(C(=O)COc2ccc(Cl)cc2)CC1 | inactive | –
73 | COCCn1c(SCC(=O)NNC(=O)c2ccccc2)nc2ccccc2c1=O | inactive | –
